# According to PubChem BioAssay AID504374 (National Center for Advancing Translational Sciences (NCATS), 2011):
# About 100 (6.7%) of roughly 1,500 compounds were called active. About 7% were inconclusive and are not listed. The call rests on the fitted dose curve; in most records, active means well fitted inhibition curve with a large enough effect; inconclusive means small, poorly fitted or top-dose-only effect, or effect the other way; inactive means flat fitted curve, though single readings scatter. The list shows a part of the results.
# Biological target: Runt-related transcription factor 1 (Homo sapiens) + Core-binding factor subunit beta (Homo sapiens) (UniProt Q01196+Q13951)
# Assay: qHTS Assay for Compounds Blocking the Interaction Between CBF-beta and RUNX1 for the Treatment of Acute Myeloid Leukemia: Hit Validation; further: nearly all actives have a fitted effect of over 60% in size
# Conditions: AlphaScreen CBFb-His/RUNX1-biotin binding; series mostly up to 59.8 µM; activity, negative = inhibition: at the top concentration
# Text: NIH Chemical Genomics Center [NCGC]
# NIH Molecular Libraries Probe Production centers Network [MLPCN]
# Assay Submitter (PI): Paul Liu
# Core Binding Factor (CBF) abnormalities are associated with 20-25% of all acute myeloid leukemias (AML), of which 5-10% are further sub classified as acute myelomonocytic leukemia with eosinophilia, also known as M4Eo in the FAB classification scheme. This subtype of leukemia is usually associated with chromosome 16 inversion (p13:q22). Chromosome 16 inversion results in formation of the fusion oncogene CBFB-MYH11, which encodes the fusion protein CBF-beta-SMMHC.
# It has been hypothesized that the interference of CBF-beta and RUNX1 binding could have therapeutic implications for patients with CBF mediated leukemias. We developed a CBF-beta and RUNX1 binding assay in AlphaScreenTM format and optimized it for high throughput screening to search for inhibitors. The goal of this project is to screen MLPCN's compound collection (MLSMR) for identifying the inhibitors of the interaction between CBF-beta and RUNX1 proteins as research probes. If these probes work well in the animal models, the ultimate goal of this project is to development a new drug treatment for this disease.
# This assay can not be used to assess how apparent inhibitors interfere with protein binding, and whether inhibitors specifically bind to either protein. Disruption of this protein-protein interaction, through any mechanism, is the intended target activity.
# The present data set was run to confirm the activity of hits from the primary screen.
# NCGC Assay Protocol Summary:
# Step, Parameter, Description
# (1) Reagent, 3 uL CBFb-His/RUNX1-biotin mix incubated together for 20 minutes at room temperature (30 nM each)
# (2) Compound or control, 23 nL compound stock solution
# (3) Incubation, 15 minutes at Room temperature
# (4) Reagent, 1 uL 50 ng each of beads (Nickel beads and streptavidin beads)
# (5) Incubation, 90 minutes at Room temperature
# (6) Detection, Excitation=365 nm Emission=440 nm, Envision reader in AlphaScreenTM mode
# Keywords: MLSMR, MLPCN, NIH Roadmap, qHTS, NCGC, Core binding factor, CBF, CBF-beta, Acute myeloid leukemia
# On the % scale 0 is the no-effect control and ±100 the full control effect; potency means the concentration at half of the fitted maximal effect.
# UniProt Q01196, sequence (Q01196 whole entry, looked up): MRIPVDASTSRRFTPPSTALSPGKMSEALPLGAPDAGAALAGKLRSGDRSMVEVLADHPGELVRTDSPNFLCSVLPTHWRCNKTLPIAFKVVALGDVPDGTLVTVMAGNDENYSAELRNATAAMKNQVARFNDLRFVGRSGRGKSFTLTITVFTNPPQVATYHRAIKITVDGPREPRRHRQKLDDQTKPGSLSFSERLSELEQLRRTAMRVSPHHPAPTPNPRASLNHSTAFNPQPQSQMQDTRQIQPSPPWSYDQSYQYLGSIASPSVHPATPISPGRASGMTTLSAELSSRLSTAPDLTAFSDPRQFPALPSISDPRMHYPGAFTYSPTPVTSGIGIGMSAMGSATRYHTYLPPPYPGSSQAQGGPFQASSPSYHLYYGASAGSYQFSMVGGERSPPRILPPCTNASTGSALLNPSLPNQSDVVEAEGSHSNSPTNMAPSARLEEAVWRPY
# UniProt Q01196, sequence (Q13951 whole entry, looked up): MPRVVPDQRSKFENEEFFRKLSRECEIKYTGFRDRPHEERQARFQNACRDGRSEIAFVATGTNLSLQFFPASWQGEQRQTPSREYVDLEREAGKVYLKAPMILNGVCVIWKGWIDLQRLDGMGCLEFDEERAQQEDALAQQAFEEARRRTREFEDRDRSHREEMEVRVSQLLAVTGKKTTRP
SMILES,"activity, negative = inhibition",Potency
Cc1cccc(C)c1NC(=S)N1CCOCC1,inactive: 0.441%,–
CCOC(=O)c1nnn2c1nc(N1CCOCC1)c1ccccc12,inactive: -1.49%,–
COc1cccc(C2=NN(C(=O)CCCC(=O)O)C(c3cccs3)C2)c1 (stereo not given),inactive: -2.11%,–
CN(C)C=Nc1ccccc1C1C=NNC1=O (stereo not given),inactive: -6.95%,–
Cc1cc(NC(=O)c2ccc3c(c2)C(=O)N(CC(C)C)C3=O)no1,inactive: -2.51%,–
O=C(NC(=S)NNC(=O)c1cnccn1)c1ccc(F)cc1,–,active: 2 µM
Cc1cc(NC(=O)Nc2cc(Cl)ccc2C)no1,inactive: 7.12%,–
COC(=O)c1cnc(N2CCOCC2)nc1C(F)(F)F,inactive: 10.6%,–
CN(C)S(=O)(=O)c1ccc(Cl)c(NC(=O)CN2CCN(Cc3ccc4c(c3)OCO4)CC2)c1,inactive: -5.65%,–
C/C(=N\O)c1c(O)cc(-c2ccccc2)n(-c2ccccc2)c1=O,inactive: -1.85%,–
CCOC(=O)c1nnsc1-c1ccc(-c2snnc2C(=O)OCC)cc1,inactive: -0.231%,–
C/C(=N\O)C1CC(CC(=O)O)C1(C)C (stereo not given),inactive: -1.84%,–
COc1ccc(NS(=O)(=O)c2ccc3c(c2)CCO3)cc1,inactive: -11.6%,–
O=C(CSC(=S)N1CCOCC1)Nc1ncc2c(n1)CCCC2=O,inactive: -6.22%,–
Cc1ccc2nc(-c3ccc(N)cc3)sc2c1,inactive: 0.903%,–
CCCSc1nnc(NC(=O)Nc2ccc(C)cc2)s1,inactive: 3.1%,–
c1ccc2sc(SCSc3nc4ccccc4s3)nc2c1,inactive: -3.42%,–
C/C(Cc1ccccc1)=N\NC(=O)CNC(=O)Cc1ccc(Cl)cc1,inactive: -1.04%,–
O=C(Nc1ccccc1)NC1CCCCNC1=O (stereo not given),inactive: 1.23%,–
CC(C)C(=O)Nc1c(-c2ccccc2)c(=O)c2ccccc2n1C,inactive: -0.529%,–

SMILES,"activity, negative = inhibition",Potency
CCOC(=O)CCCC(=O)N1CCOCCOCCOCC1,inactive: 16.6%,–
CCN(CCS(=O)(=O)c1ccc(Cl)cc1)C(=O)Nc1ccccc1,inactive: -4.65%,–
O=C(NC(=S)Nc1ccccc1N1CCCC1)c1ccco1,inactive: -2.74%,–
CN(C)c1ccc(/C=N/N2CCN(c3ccccn3)CC2)cc1,inactive: -9.06%,–
NC(=S)N/N=C/c1ncc(C(F)(F)F)cc1Cl,–,active: 25.1 µM
Cc1cc(O)c(C=O)c2c1C(=O)Oc1c(COC(=O)/C=C/C(=O)O)c(O)c(C(=O)O)c(C)c1O2,–,active: 11.2 µM
Brc1ccc(C2=Nn3c(Cn4nnc5ccccc54)nnc3SC2)cc1,inactive: -1.04%,–
COc1ccccc1C1=NOC(COC(=O)c2ccc([N+](=O)[O-])cc2)C1 (stereo not given),inactive: -4.56%,–
Cc1cc(C)c2c(N)c(-c3nnc(SCc4ccc(Cl)cc4)n3C)sc2n1,inactive: 2.85%,–
CC1SCC(=NOCc2ccccc2)CS1 (stereo not given),inactive: -8.26%,–
CN(C)/C=C1\N=C(c2cccnc2Oc2ccc(Cl)cc2)OC1=O,inactive: 6.79%,–
CC(C)(C)SCCNC(=O)/C=C/c1ccccc1,inactive: -3.56%,–
O=S(=O)(Nc1ccccc1)c1ccc2c(c1)CCO2,inactive: -0.675%,–
Cc1[nH]c2ccccc2c1-c1csc(NC(=O)CSCC(=O)O)n1,inactive: -7.85%,–
COC(=O)c1ccc(S(=O)(=O)N(C2CCCCC2)C2CCCCC2)n1C,inactive: -5.96%,–
C[C@H](NC(=O)OC(C)(C)C)C(=O)N/N=C/c1ccc2nccnc2c1,inactive: -2.06%,–
Oc1ccccc1-c1nc(NCc2cccnc2)c2ccccc2n1,inactive: 12.7%,–
CCOC(=O)c1sc(NC(=O)CSC(=S)N2CCOCC2)nc1C,inactive: -8.75%,–
CCNC(=S)Nc1ccc(NC(=O)c2ccccc2O)cc1,inactive: -7.2%,–
Cc1nn2c(NCCCn3ccnc3)cc(C(C)C)nc2c1-c1ccccc1,inactive: -18.6%,–

SMILES,"activity, negative = inhibition",Potency
CN(C)C(=O)Nc1ccccc1,inactive: -3.42%,–
Cc1cc(-n2cnc(-c3cn(C)nc3C)n2)no1,inactive: 4.98%,–
O=C(Nc1ccc2ccccc2c1)c1ccc(Cl)cc1Cl,inactive: 2.02%,–
CCOC(=O)Nc1c2ccccc2nc2ccccc12,inactive: 1.38%,–
O=C1COc2cccnc2N1,inactive: -3.87%,–
O=C(O)CSCC(=O)N1CCCN(c2nc3ccc(Cl)cc3s2)CC1,inactive: -0.955%,–
C/C(=N\NC1=NCCN1)c1ccc(Cl)cc1,inactive: -3.04%,–
CC(=O)NS(=O)(=O)c1ccc(NC(=O)c2cc3c(=O)n4ccccc4nc3s2)cc1,inactive: -4.09%,–
COc1ccccc1N1CC(C)(C)C(=O)N(C(=O)c2ccc(C)cc2)C1=S,inactive: -0.678%,–
Cn1nc(-c2ccccc2)cc1NS(=O)(=O)c1ccccc1,inactive: -0.754%,–
CCCCc1c(C)nc(N2CCCC2)[nH]c1=O,inactive: -5.95%,–
O=[N+]([O-])c1cccnc1Oc1ccccc1F,inactive: 2.26%,–
CC1CC(=O)Nc2ccccc2N1S(=O)(=O)c1cccc(F)c1 (stereo not given),inactive: -3.76%,–
CCOc1ccc(OCc2ccc(C(=O)NN)o2)cc1,inactive: -7.39%,–
CCOc1ccc(-n2c(C)cc(/C=N/Nc3nc(C)cc(=O)[nH]3)c2C)cc1,inactive: 1.92%,–
c1cnc2c(c1)ccc1cccnc12,–,active: 1.12 µM
Cc1c(C(=O)/C=C/N(C)C)nnn1-c1ccc(F)c(Cl)c1,inactive: -5%,–
CCOC(=O)Cc1c[nH]c(=S)[nH]c1=O,inactive: -0.0013%,–
COc1ccc(CCn2cnc3c([nH]c4ccccc43)c2=O)cc1,inactive: -4.1%,–
NC(=O)/C(=C\c1ccncc1)c1cccc2ccccc12,inactive: -2.14%,–
